# Experimental data taken from PubChem BioAssay AID1745853 (National Center for Advancing Translational Sciences (NCATS), 2022).
# Several values for one entry are separate records, joined by “and”; a condition that tells them apart may be missing. Equal values may be shown once. Some of the results follow. The main result of the screen is listed elsewhere. These columns were measured beside it and carry no call.
# Assays:
# Assay in all cases: Primary Screen for Target Class Profiling of Small Molecule Inhibitors of Methyltransferases
# [1] = target: Glycine N-methyltransferase (Homo sapiens) (UniProt Q14749); details: purified enzyme, MTase-Glo SAH luminescence; measured here: GNMT inhibition; at 40 µM; stronger effect = lower value
# In short: (§1)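 Each enzyme was reacted with SAM and its substrate, with compounds tested once at 40 uM; SAH formed was read by MTase-Glo luminescence.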
# [2] = target: Guanidinoacetate N-methyltransferase (Homo sapiens) (UniProt Q14353); details: purified enzyme, MTase-Glo SAH luminescence; measured here: GAMT inhibition; at 40 µM; stronger effect = lower value
# In short: as §1
# [3] = target: Histamine N-methyltransferase (Homo sapiens) (UniProt P50135); details: purified enzyme, MTase-Glo SAH luminescence; measured here: HNMT inhibition; at 40 µM; stronger effect = lower value
# In short: as §1
# [4] = target: Nicotinamide N-methyltransferase (Homo sapiens) (UniProt P40261); details: purified enzyme, MTase-Glo SAH luminescence; measured here: NNMT inhibition; at 40 µM; stronger effect = lower value
# In short: as §1
# [5] = target: Phenylethanolamine N-methyltransferase (Homo sapiens) (UniProt P11086); details: purified enzyme, MTase-Glo SAH luminescence; measured here: PNMT inhibition; at 40 µM; stronger effect = lower value
# In short: as §1
# On the % scale 0 is the no-effect control and ±100 the full control effect.
Structure (SMILES),"activity change, negative = inhibition [1]","activity change, negative = inhibition [2]","activity change, negative = inhibition [3]","activity change, negative = inhibition [4]","activity change, negative = inhibition [5]"
CCOc1ccc(N2C(=O)CSc3c(c4ccccc4n3C)C2C(=O)NCCC(C)C)cc1 (stereo unspecified),4.2%,0%,-0.952%,-1.31%,5.02%
N[C@@H](Cc1cc(I)c(Oc2ccc(O)c(I)c2)c(I)c1)C(=O)O,-8.9%,-34.6%,-9.85%,-52.5%,-18.2%
COC(=O)c1cc(OC)cc(OC)c1C(=O)c1c(OC)cc2c(c1O)C1CCC(O)C(C)(O2)O1 (stereo unspecified),-1.74%,4.6%,2.4%,-10.2%,2.17%
O=C1CC(c2ccccc2)NCCCCCCN1 (stereo unspecified),-2.41%,-1.95%,0.453%,-1.82%,-9.04%
O=c1cc(N2CCOCC2)oc2c(NCC3CCOCC3)nccc12,-4.93%,-1.67%,-1.32%,-9.62%,-12.8%
CC(C)c1ccc2c(c1)C(O)CC1C(C)(C(=O)O)CCCC21C (stereo unspecified),-0.998%,-10.4%,3.46%,-19%,-2.95%
COC[C@H](C)Oc1cc(O[C@@H](C)Cc2ccccc2)cc(C(=O)Nc2ccc(C(=O)O)cn2)c1,–,-5.61%,–,-14%,-0.525%
C[C@@H]1O[C@@H](O[C@@H]2/C=C/C=C/C=C\C=C\C[C@H](C)OC(=O)/C=C/[C@H]3O[C@@H]3C[C@H](O)C[C@]3(O)C[C@@H](O)[C@@H](C(=O)O)[C@H](C2)O3)[C@H](O)[C@H](N)[C@@H]1O,–,-12.7%,–,-20.8%,-1.32%
OC[C@H]1O[C@@H](OCCc2ccc(O)cc2)[C@H](O[C@@H]2OC[C@](O)(CO)[C@H]2O)[C@@H](O)[C@@H]1O,4.32%,8.56%,9.95%,-3.57%,6.39%
CCN1CCN(Cc2ccc(C(=O)Nc3ccc(C)c(Oc4ccc5c(c4)CC(=O)N5)c3)cc2C(F)(F)F)CC1,-0.979%,-1.15%,-5.42%,-21.7%,-14.5%
CCc1cccc(NC(=O)c2cc3n(n2)CC(C)(C(=O)NC2CCCC2)N(CC)C3=O)c1 (stereo unspecified),2.24%,1.72%,-5.9%,2.7%,3.36%
CC1(C)[C@H]2CC[C@@H](CNC(=O)c3ccc4ccccc4n3)[C@@H]1C2,-6.35%,-4.36%,-1.17%,-20.9%,-11.5%
CCC(=O)N1CCc2c(C(=O)N3CCCCC3)cccc21,-5.63%,-12.4%,-3.83%,-16.5%,-14%
COC1CCC(C(=O)N2CCC3(CC2)OC(=O)N(CCOc2ccccc2)C3(C)c2cccnc2)CC1 (stereo unspecified),-2.43%,-8.92%,-2.98%,-14.9%,-9.82%
C=CCS(=O)(=O)N1C[C@H]2OC(=O)N(CCc3cccc(Cl)c3)[C@H]2C1,-3.31%,-4.75%,-0.435%,-1.66%,-4.94%
COc1ccccc1[C@@H]1C2=C(CC(C)(C)CC2=O)Nc2n[nH]c(C(F)(F)F)c21,-0.852%,6.58%,0.149%,-21.7%,-1.49%
CCC1(C(=O)O)CCCCC(=O)N1 (stereo unspecified),-2.71%,-3.96%,-2.42%,-5.89%,0.713%
CCC(C)C(=O)OC1CC(O)C23C4OCC5(C(O)CC2C1(C)C(O)O4)C3C(=O)CC1(C)C(c2ccoc2)CC2OC215 (stereo unspecified),-0.408%,1.53%,2.28%,-6.99%,-0.077%
COCc1nc(C2CC(NC(=O)CN3C(=O)CN(C)C3=O)C2)cc(=O)[nH]1 (stereo unspecified),-3.19%,-7.69%,-2.66%,-4.9%,-9.96%
COc1cccc(CNC(=O)c2ccc3c(=O)nc4c(-c5ccc(C)cc5)n[nH]n4c3c2)c1,-13.3%,-0.321%,-5.3%,-8.65%,-8.73%
COc1ccc(-c2cc3n(n2)CC(C)(C(=O)NC2CCCCCC2)N(Cc2ccccc2)C3=O)cc1 (stereo unspecified),2.04%,0%,7.71%,8.26%,2.62%
CN(C)C(=O)[C@H](O)[C@H](Cc1ccccc1)NC(=O)c1cc2cc(Cl)ccc2[nH]1,-8.61% and -1.25%,1.36% and 4.62%,-1.52% and 5.9%,-10.8% and -14.6%,-4.18% and -0.51%
CCCn1c(=O)c2cc(F)ccc2n2c(SCc3cccc(Cl)c3)nnc12,-16.5%,2.82%,4.32%,-14.8%,1.59%
CCCC1(C2CCN(C(=O)Cc3ccc(OC)cc3)CC2)NC(=O)N(CCc2cccs2)C1=O (stereo unspecified),-4.25%,-8.92%,-1.71%,-15.6%,7.99%
c1ccc(-c2n[nH]c(CC3CCNC3)n2)cc1 (stereo unspecified),-3.81%,-0.638%,-2.13%,-7.85%,-3.27%
CCc1ccccc1NC(=O)Cn1nc2n(C(C)C)c(=O)c3ccc(C(=O)NCC(C)C)cc3n2c1=O,0.092%,4.45%,1.42%,0.551%,0.664%
Cc1noc2c(-c3cccc(CO)c3)cc(-c3cccc(C(F)(F)F)c3)nc12,-3.91%,0.511%,0.878%,-9.37%,-11%
Cc1ccc(C(=O)Cn2nc3n(CCC(C)C)c(=O)c4ccccc4n3c2=O)c(C)c1,2.83%,1%,8.22%,-6.65%,5.83%
Cc1cc(=O)n(CC(=O)Nc2ccc3c(c2)OCCO3)c(N2CCc3ccccc3C2)n1,-9.29%,-9.84%,-3.02%,-15.8%,-13.3%
Cc1ccc(Cl)cc1NC(=O)CN(C)S(=O)(=O)c1ccc2[nH]c3c(c2c1)CCCC3,-2.95%,4.64%,5.9%,-2.21%,2.55%
